In all, about 48,000 compounds went through this assay and about 120 (0.25%) were called active. Inconclusive results (about 4%) are left out. Calls follow the shape of the dose curve; as a rule, active = well fitted activation curve with a large enough effect; inconclusive = small, poorly fitted or top-dose-only effect, or another doubt; inactive = no such curve, though single readings can be large or run the other way. The list shows a part of the results.
Test: Primary qHTS for Identification of Small Molecule Activators of Huntingtin-Antisense Promoter Activity; also: nearly all actives have a fitted effect of over 55% in size
Conditions: HEK293 HTT-AS promoter firefly luciferase reporter (activity 0% = vehicle and -100% = no light), 24 h; series mostly up to 57.5 µM; activity change, positive = activation: at the top concentration
In short: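 Firefly luciferase readout (Dual-Glo, 10 min RT) after 24 h, 37 °C compound exposure (final up to 57.5 uM) of HEK293 reporter cells cultured 24 h beforehand; PTC124 at 50 uM final as control inhibitor; activity scaled vehicle 0%, zero RLU -100%.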

Row | SMILES | activity change, positive = activation
1 | CCOC(=O)c1cccc(NC(=O)NCCc2c(C)nn(C)c2C)c1 | inactive: 1.44%
2 | Cc1cccc(C)c1OCCCCn1c(C2CC(=O)N(c3ccc(F)cc3)C2)nc2ccccc21 (stereo not drawn) | inactive: -58.3%
3 | CCc1cccc2sc(N3CCN(C(=O)C4CC4)CC3)nc12 | inactive: -21.4%
4 | Cc1ccc2cccc(NC(=O)c3cccc4ccccc34)c2n1 | inactive: -16%
5 | O[C@@H](CNC[C@H](O)[C@H]1CCc2cc(F)ccc2O1)[C@@H]1CCc2cc(F)ccc2O1 | inactive
6 | CCN1C(=O)c2cccc3c(S(=O)(=O)Nc4ccc(O)c(C(=O)O)c4)ccc1c23 | inactive: -4.08%
7 | CC(C)(C)OC(=O)N1CCC(c2c(C(=O)N3CCc4ccccc4C3)cnn2-c2ccc(Cl)cc2)CC1 | inactive: -24.9%
8 | CCOc1ccccc1C(=O)N(Cc1ccc(N(C)C)cc1)CC1CCCO1 (stereo not drawn) | inactive: -8.91%
9 | Cc1cc(C)cc(C(=O)N2CC(=O)Nc3ccc(C)cc3C2c2ccccc2)c1 (stereo not drawn) | inactive: -25.6%
10 | CCCCNC(=O)CSc1nc2cc3c(cc2c(=O)n1CCCC(=O)NCc1ccc2c(c1)OCO2)OCO3 | inactive: -14.4%
11 | Cc1cccc(-n2c(=O)c3c(c4cc(C)ccc4n3C)n(CC(=O)Nc3ccccc3C(F)(F)F)c2=O)c1 | inactive: -18.1%
12 | c1ccc(C(c2cccs2)c2c[nH]c3ccccc23)cc1 (stereo not drawn) | inactive: -29.9%
13 | Cc1ccc(-c2noc(CN(C3CCCCC3)S(=O)(=O)c3ccc(Cl)cc3)n2)cc1 | inactive: -1.95%
14 | Cc1ccc(CNc2ncnc3c2c(-c2ccccc2)cn3-c2cccc(Cl)c2)cc1 | inactive: 3.37%
15 | COc1ccc(-c2nc3n(n2)C(c2ccccc2F)C(C(=O)Nc2cccnc2)=C(C)N3)cc1OC (stereo not drawn) | inactive: -7.71%
16 | Oc1ccc(Cl)cc1Sc1cc(Cl)ccc1O | inactive: -91.5%
17 | CCCCN(C(=O)c1cccc(S(=O)(=O)N2CCCCC2)c1)C1CCS(=O)(=O)C1 (stereo not drawn) | inactive: -4.67%
18 | COCCCNC(=O)c1sc2ncccc2c1-n1cccc1 | inactive: 22.3%
19 | COc1ccc(C2CC(=O)c3c([nH]c(C(=O)OC4CCC(C)CC4)c3C)C2)cc1OC (stereo not drawn) | inactive: -21.7%
20 | O=C(Nc1ccc(F)c(Cl)c1)N1CCN2CCCCC2C1 (stereo not drawn) | inactive: 13.5%
21 | CC(=O)c1ccc(NC(=O)Cn2nc(C(F)(F)F)c3c2CCC3)cc1 | inactive: 13.2%
22 | Cc1ccc(CSc2c(C)cnc3c2c(=O)n(C)c(=O)n3C)cc1 | inactive: -30.7%
23 | O=C(Cn1ncc2c3ccccc3n(Cc3ccccc3)c2c1=O)NCc1cccs1 | inactive: -2.39%
24 | CCOC(=O)C1=C(CN2CCN(c3ccc(Cl)cc3)CC2)NC(=O)NC1c1ccc(OC)cc1 (stereo not drawn) | inactive: -1.02%
25 | CCc1nc2ccc(C(=O)N3CCN(c4ccccc4F)CC3)cc2nc1CC | inactive: -26.8%

Row | SMILES | activity change, positive = activation
26 | Cc1ccc(Cl)cc1N1CCN(C(=O)Cn2cnc3onc(-c4ccc(F)cc4)c3c2=O)CC1 | inactive: -18.6%
27 | CCCCNC(=O)CCC1N=C2c3ccccc3N=C(SCC(=O)NCCc3ccc(OC)c(OC)c3)N2C1=O (stereo not drawn) | inactive: -5.34%
28 | CCN(CC)CCNC(=O)CCn1c(=O)c2cccn2c2cccnc21 | inactive: -8.95%
29 | Cc1ccc(Cl)cc1NC(=O)Cn1c(=O)cc(C)c2c(C)nn(C)c21 | inactive: 1.69%
30 | Cc1ccc(CNC(=O)CCNS(=O)(=O)c2ccc3c(c2)oc(=O)n3C)cc1 | inactive: -12.8%
31 | O=C(COc1ccc(Br)cc1Br)Nc1ccc(S(=O)(=O)Nc2ncccn2)cc1 | inactive: -8.81%
32 | Cc1cc(C)c(S(=O)(=O)Nc2ccc3oc(C)c(C(=O)OC(C)C)c3c2)cc1C | inactive: -14.6%
33 | Cc1oc(-c2cccc(Cl)c2)nc1CN1CCC(C(=O)NC(C)C)CC1 | inactive: -6.36%
34 | O=C(CCn1c(=O)c2sccc2n(Cc2ccc(F)cc2)c1=O)NCc1ccc2c(c1)OCO2 | inactive: -7.89%
35 | COc1cccc(C2CC(=O)Nc3c2c(=O)n(C)c2nc4ccccc4n32)c1OC (stereo not drawn) | inactive: -22.6%
36 | Cc1ccc(NC(=O)CC2Oc3ccc(C)cc3NC2=O)c(C)c1 (stereo not drawn) | inactive: -19.2%
37 | CCOc1ccc(NC(=O)Cn2c(=O)n(CCc3ccccc3)c(=O)c3c4c(sc32)CCCC4)cc1 | inactive: -11.9%
38 | COc1cccc(Nc2nnc(-c3cc4ccc(O)cc4oc3=O)s2)c1 | inactive: -6.2%
39 | CCN1CCN(c2ncc3c(n2)CCN(Cc2cc(Br)cs2)C3)CC1 | inactive: -13.9%
40 | CCC(C)NC(=O)c1cc2cc(S(=O)(=O)N3CCCCC3)ccc2n1C (stereo not drawn) | inactive: -35.4%
41 | Cc1c(O)nc(SCC(=O)Nc2ccc(Cl)cc2Cl)n(-c2ccc(F)cc2)c1=O | inactive: -28.7%
42 | Cc1nn(C)c2c1c(C(F)(F)F)cc(=O)n2CC(=O)NCc1ccc(OC(C)C)cc1 | inactive: -31.2%
43 | C[C@H](NC(=O)C(C#N)=Cc1cccc(Br)n1)c1ccccc1 | inactive: -89.3%
44 | CCC(C)c1ccc(OCC(=O)Nc2cccc3ccc(C)nc23)cc1 (stereo not drawn) | inactive: -5.44%
45 | Cc1cn(C)c(CC(=O)NCc2cccc(Cl)c2)c1C(=O)O | inactive: -16.1%
46 | C/C(=N/NC(=O)c1ccncc1)C(=O)O | inactive: -0.0841%
47 | CC(C)(C)c1ccc(S(=O)(=O)N2CCC(Oc3ccc(-n4cnnn4)cc3)CC2)cc1 | inactive: -15.1%
48 | COc1cc(Cn2c(=O)oc3ccc(C)cc32)ccc1OCCC(C)C | inactive: -38.1%
49 | CC(C)(C)c1ccc(CSC2=Nc3ccccc3C3=NC(CC(=O)NCc4cccs4)C(=O)N23)cc1 (stereo not drawn) | inactive: -17.4%
50 | Cc1ccc(CNS(=O)(=O)c2ccc(N3CCCCS3(=O)=O)cc2)cc1 | inactive: -17.3%

Row | SMILES | activity change, positive = activation
51 | O=C(CNC(=O)c1ccc(Cl)cc1)OCc1cc(=O)n2nc(C3CC3)sc2n1 | inactive: -7.32%
52 | O=C(CSc1nc2ccsc2c(=O)n1Cc1ccc(F)cc1)NCc1ccc(Cl)cc1 | inactive: -20.8%
53 | CN1c2ccc(Cl)cc2-c2nc(SCC(=O)NCc3ccc(F)cc3)ncc2S1(=O)=O | inactive: 7.44%
54 | CC1=C(C(=O)Nc2ccc(C)cc2C)C(c2ccccc2)n2nc(SCC(=O)c3ccc(C)cc3)nc2N1 (stereo not drawn) | inactive: -1.52%
55 | O=C1CCCc2cc(S(=O)(=O)NCC3CCC(C(=O)Nc4ccc(Cl)cc4)CC3)ccc2N1 (stereo not drawn) | inactive: -21.2%
56 | Cc1cc(Nc2ccc(Br)cc2)n2nc(-c3ccccc3C)nc2n1 | inactive: -18.6%
57 | CCc1ccccc1NC(=O)CCNS(=O)(=O)c1ccc2c(c1)CCCC(=O)N2 | inactive: -6.91%
58 | Oc1ccc(-c2nc(-c3ccc(F)cc3)c(-c3ccncc3)[nH]2)cc1 | inactive: -45.6%
59 | COc1ccc(NC(=O)Cn2c(=O)oc3ccccc32)cc1 | inactive: -8.91%
60 | CCc1ccccc1NC(=O)Cn1c(=O)n(Cc2ccco2)c(=O)c2ccccc21 | inactive: -18.1%
61 | COc1ccc(-c2c(C#N)c(SCC(=O)Nc3cccc(Cl)c3)nc(C)c2C(=O)Nc2ccccc2)cc1OC | inactive: -4.44%
62 | CCc1ccc(NC(=O)C2CCN(c3nn4cc(-c5ccc(OC)cc5)nc4s3)CC2)cc1 | inactive: 2.45%
63 | c1ccc(-c2nc[nH]c2-c2ccccc2)cc1 | inactive: -11.1%
64 | Cc1ccc(N2C(=O)CC(c3ccccc3F)C3=C2COC3=O)cc1Cl (stereo not drawn) | inactive: -22.1%
65 | CCCCCCCC(=O)OCC(O)CO (stereo not drawn) | inactive: -15.3%
66 | CCN(CC)C(=O)Cn1c(=O)n(-c2ccc(Cl)c(Cl)c2)c(=O)c2c(C)c(C(=O)N(CC)CC)sc21 | inactive: -6.75%
67 | CCc1nnc2c(N3CCN(c4cccc(C)c4)C(C)C3)nc3ccccc3n12 (stereo not drawn) | inactive: -16.7%
68 | CC(C)c1ccc(C2Sc3ccccc3NC3=C2C(=O)c2ccccc23)cc1 (stereo not drawn) | inactive: -79.8%
69 | COc1ccc(Nc2oc(-c3ccc(COc4cccc(C)c4)o3)nc2C#N)cc1 | inactive: -21.9%
70 | COC(=O)c1cc(NC(=O)CCc2c(C)nc3c(c(C)nn3C(C)(C)C)c2C)cc(C(=O)OC)c1 | inactive: -0.677%
71 | COc1ccc(CCNC(=O)Cc2c(C)c3cc4c(C(C)(C)C)coc4c(C)c3oc2=O)cc1OC | inactive: 4.11%
72 | Cc1cc(C)c2c(c1)NC(=O)C2(O)c1c[nH]c2ccccc12 (stereo not drawn) | inactive: -10.1%
73 | Cc1ccc2c(c1)cc1c(=O)n(Cc3cccc(Cl)c3)nc(C)n12 | inactive: 1.52%
74 | O=C(Nc1cc(Cl)ccc1Cl)c1cc(S(=O)(=O)NCCc2ccccc2)ccc1F | inactive: -20%
75 | Cc1nc(N2CCOCC2)c2c(C(=O)N3CCN(c4ccccc4F)CC3)c(C)oc2n1 | inactive: -6.14%

Row | SMILES | activity change, positive = activation
76 | Cc1ccc(CN2COc3ccc4c(C)cc(=O)oc4c3C2)cc1 | inactive: -6.59%
77 | Cc1ccc(C(=O)N(Cc2ccco2)Cc2sccc2C)cc1 | inactive: -17.8%
78 | CC1CCc2onc(C(=O)N3CCN(c4ccccc4)CC3)c2C1 (stereo not drawn) | inactive: 7.74%
79 | O=C(COc1ccccc1F)Nc1ccccc1C(=O)OCc1cc(=O)n2nc(C3CC3)sc2n1 | inactive: 11%
80 | O=C(NCc1ccc(Cl)cc1)c1cc2c(s1)-c1ccccc1SC2 | inactive: -3.18%
81 | CCCN1CCN(CCCNC(=O)c2ccc3c(c2)sc2nc(-c4ccc(OC)cc4)cn23)CC1 | inactive: 5.93%
82 | CCS(=O)(=O)c1ccc(OC)c(C(=O)OC)c1 | inactive: 0.298%
83 | CC1=C(C(=O)NCc2ccccc2Cl)C2(CCCCCC2)OC1=O | inactive: -20.2%
84 | O=C(O)c1ccc2cc(-c3ccc(O)c(C45CC6CC(CC(C6)C4)C5)c3)ccc2c1 | inactive: -8.91%
85 | Cc1ccc2c(CNCC(C)c3ccccc3)c(C(=O)O)n(Cc3ccccc3C)c2c1 (stereo not drawn) | inactive: -11.2%
86 | Cc1ccccc1Cn1c(CN2CCC(C(=O)NCc3cccnc3)CC2)cc2ccccc21 | inactive: -13.3%
87 | CCOC(=O)C1CCN(C(=O)Cn2nc(C)n3c(cc4sccc43)c2=O)CC1 | inactive: -11.9%
88 | O=C(NC[C@H](O)CO)c1ccncc1Nc1ccc(I)cc1F | inactive: -16.2%
89 | Cn1c(SCC(=O)N2CCOCC2)ncc(C(=O)Nc2ccccc2)c1=O | inactive: -2.7%
90 | CCc1ccc(NC(=O)CCn2c(-c3ccc(OC)cc3)cc(C(C)=O)c2C)cc1 | inactive: -34%
91 | COc1ccc(NC(=O)c2ccc3c(c2)N(Cc2cccc(Cl)c2)C(=O)c2ccccc2S3=O)cc1Cl (stereo not drawn) | inactive: -19.5%
92 | CC1CCN(c2nc3c(S(=O)(=O)c4ccccc4)nnn3c3ccc(Cl)cc23)CC1 | inactive: 2.84%
93 | COc1cccc(Cc2nc3ccccc3nc2SCC(=O)NCCc2ccccc2)c1 | inactive: -37.3%
94 | COc1ccc(C2C=C(c3ccc(F)cc3)Nc3nc(-c4ccc(Cl)cc4)nn32)cc1 (stereo not drawn) | inactive: -93.8%
95 | Cc1c(C)n(Cc2ccccc2)c2ccc(C(=O)NCc3ccccc3F)cc12 | inactive: -17.3%
96 | O=C(c1cnn(-c2cccc(F)c2)c1-n1cccc1)N1CCN(c2ccccc2F)CC1 | inactive: -25.5%
97 | COc1ccccc1NC(=O)NCCCN1CCN(c2ccc(F)cc2)CC1 | inactive: -8.74%
98 | COc1ccc(-n2nc3c(N4CCC(C(=O)NCc5cccc(F)c5)CC4)nnc(C)c3c2C)cc1 | inactive: -33.6%

Source: PubChem BioAssay AID1508624 (National Center for Advancing Translational Sciences (NCATS), 2021)
